The source of these data is article PMC12711579.

Results are given in words; binding and its absence hold for the method and conditions named. Some results given as binding are weak or reduced against the parent protein; the word gives no strength.

What all share (test): two-hybrid; Clontech Matchmaker Gold; pGADT7 (AD) and pGBKT7 (BD) fusions co-transformed into Y2H Gold yeast; serial dilutions on DDO, TDO (−His/−Leu/−Trp, screens for weak interactions) and QDO (−His/−Ade/−Leu/−Trp, screens for strong interactions); 3–5 days at 30 °C
Assay [1] has as its target T1, PCH2 (A. thaliana), Q8H1F9.
T1 chain: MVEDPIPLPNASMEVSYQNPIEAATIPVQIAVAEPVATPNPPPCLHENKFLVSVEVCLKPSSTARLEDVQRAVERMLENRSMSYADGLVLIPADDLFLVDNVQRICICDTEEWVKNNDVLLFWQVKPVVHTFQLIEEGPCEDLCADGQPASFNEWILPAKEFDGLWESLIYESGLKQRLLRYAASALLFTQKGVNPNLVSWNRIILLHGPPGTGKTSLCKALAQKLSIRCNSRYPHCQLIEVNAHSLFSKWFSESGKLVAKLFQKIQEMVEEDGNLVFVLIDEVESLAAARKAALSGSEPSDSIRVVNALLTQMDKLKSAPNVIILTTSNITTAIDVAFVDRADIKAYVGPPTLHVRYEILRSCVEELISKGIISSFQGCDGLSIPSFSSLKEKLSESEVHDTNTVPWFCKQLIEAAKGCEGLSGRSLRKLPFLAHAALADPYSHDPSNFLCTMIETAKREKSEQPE
Particulars: remark: other sources report otherwise.

The target in the next assay is HEI10 (A. thaliana) (UniProt F4HRI2).
The target of the next assay is ZYP1a (A. thaliana) (UniProt Q9LME2).
For another assay, the target named is T2, ZYP1b (A. thaliana) (UniProt P61430).
T2 sequence: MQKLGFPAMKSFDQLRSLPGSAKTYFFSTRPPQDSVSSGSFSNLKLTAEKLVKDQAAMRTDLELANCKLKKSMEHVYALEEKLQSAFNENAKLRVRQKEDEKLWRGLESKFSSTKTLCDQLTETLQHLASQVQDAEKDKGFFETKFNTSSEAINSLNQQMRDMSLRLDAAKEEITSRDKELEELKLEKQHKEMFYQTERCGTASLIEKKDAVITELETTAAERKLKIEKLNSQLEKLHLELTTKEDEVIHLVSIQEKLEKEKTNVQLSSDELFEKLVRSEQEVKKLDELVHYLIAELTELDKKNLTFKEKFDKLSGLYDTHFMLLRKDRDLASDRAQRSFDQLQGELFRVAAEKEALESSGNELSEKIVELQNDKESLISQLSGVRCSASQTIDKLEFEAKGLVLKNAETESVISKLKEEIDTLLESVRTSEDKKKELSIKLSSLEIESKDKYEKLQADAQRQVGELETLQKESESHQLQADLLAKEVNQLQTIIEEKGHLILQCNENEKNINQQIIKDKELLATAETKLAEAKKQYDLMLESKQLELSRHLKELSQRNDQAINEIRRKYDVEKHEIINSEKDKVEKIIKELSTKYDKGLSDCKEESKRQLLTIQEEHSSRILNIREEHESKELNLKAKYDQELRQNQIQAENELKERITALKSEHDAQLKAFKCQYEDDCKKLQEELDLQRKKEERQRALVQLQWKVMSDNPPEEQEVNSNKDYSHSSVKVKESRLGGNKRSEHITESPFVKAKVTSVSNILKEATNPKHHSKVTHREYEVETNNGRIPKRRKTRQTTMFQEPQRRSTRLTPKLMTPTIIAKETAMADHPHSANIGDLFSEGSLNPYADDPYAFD

B1: ZYP1b, P61430 1-856 (protein)
chain: T2 sequence
Regarding B1, in assay [1], the binding entry is “binds”.

B2: HEI10 (protein, UniProt F4HRI2 1-304)
chain: MRCNACWRDLEGRAISTTCGHLLCTEDASKILSNDGACPICDQVLSKSLMKPVDINPNEEWINMAMAGISPQILMKSAYRSVMFYIAQRDLEMQYKMNRVVAQCRQKCEGMQAKFSEKMEQVHTAYQKMGKRCQMMEQEVENLTKDKQELQEKFSEKSRQKRKLDEMYDQLRSEYESVKRTAIQPANNFYPRHQEPDFFSNPAVNMMENRETIRKDRSFFSPATPGPKDEIWPARQNSSNSGPFDISTDSPAIPSDLGNRRAGRGHPVYGGGGTANPQSTLRNLILSPIKRSQLSRSRPQLFTL
In the case of B2, in the assay with HEI10 (A. thaliana), the binding entry was “binds”.

B3: ZYP1a (protein, UniProt Q9LME2 1-871)
chain: MQKLGFPAMKSLDKPRSLSGSANMYSFSNRKPPDSVSSGSFSNLKLTAEKLVKDQAAMRTDLELANCKLKKSMEHVYALEEKLQNAFNENAKLRVRKKEDEKLWRGLESKFSSTKTLCDQLTETLQHLASQVQDAEKDKGFFETKFSTSSEAIDSLNQQMRDMSLRLDAAKEEITSRDKELEELKLEKQQKEMFYQTERCGTASLIEKKDAVITKLEASAAERKLNIENLNSQLEKVHLELTTKEDEVKDLVSIQEKLEKEKTSVQLSADNCFEKLVSSEQEVKKLDELVQYLVAELTELDKKNLTFKEKFDKLSGLYDTHIMLLQKDRDLALDRAQRSFDNLQGELFRVAATKEALESAGNELNEKIVELQNDKESLISQLSGLRCSTSQTIDKLESEAKGLVSKHADAESAISQLKEEMETLLESVKTSEDKKQELSLKLSSLEMESKEKCEKLQADAQRQVEELETLQKESESHQLQADLLAKEVNQLQTVIEEKGHVILQCNENEKQLNQQIIKDKELLATAETKLAEAKKQYDLMLESKQLELSRHLKELSQRNDQAINEIRRKYDVEKHEIINSEKDKVEKIIKDLSNKFDKELSDCKEESKRQLLTIQEEHSSLILSLREEHESKELNLKAKYDQELRQSQIQAENELKERITALKSEHDAQLKAFKCQYEDDCKKLQEELDLQRKKEERQRALVQLQWKVMSDNPPEEQEVNSNKNYSISKDSRLGGSKRSEHIRVRSDNDNVQDSPFVKAKETPVSKILKKAQNVNAGSVLSIPNPKHHSKVTHREYEVETNNGRVTKRRKTRNTTMFEEPQRRRTRATPKLTPQSIAKGTGMTSHARSANIGDLFSEGSLNPYADDPYAFD
B3: the results for the binding result with ZYP1a (A. thaliana) and with ZYP1b (A. thaliana) were “binds” and “no binding”, respectively.
